Results published in PMC4336329 (PLoS ONE, 2015).
In all, about 310,000 compounds went through this assay and about 14,000 (4.5%) showed an effect of 50% or more. The effect is printed as a negative number. The list shows a part of the results.

biological target: human ether-à-go-go-related gene (hERG) potassium channel (human, UniProt Q12809); assay: primary screen, population patch clamp on CHO cells stably expressing hERG
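Note: peak tail current of the secondary pulse compared with the same well before compound.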

Sequence of human ether-à-go-go-related gene (hERG) potassium channel (Q12809 whole entry, looked up): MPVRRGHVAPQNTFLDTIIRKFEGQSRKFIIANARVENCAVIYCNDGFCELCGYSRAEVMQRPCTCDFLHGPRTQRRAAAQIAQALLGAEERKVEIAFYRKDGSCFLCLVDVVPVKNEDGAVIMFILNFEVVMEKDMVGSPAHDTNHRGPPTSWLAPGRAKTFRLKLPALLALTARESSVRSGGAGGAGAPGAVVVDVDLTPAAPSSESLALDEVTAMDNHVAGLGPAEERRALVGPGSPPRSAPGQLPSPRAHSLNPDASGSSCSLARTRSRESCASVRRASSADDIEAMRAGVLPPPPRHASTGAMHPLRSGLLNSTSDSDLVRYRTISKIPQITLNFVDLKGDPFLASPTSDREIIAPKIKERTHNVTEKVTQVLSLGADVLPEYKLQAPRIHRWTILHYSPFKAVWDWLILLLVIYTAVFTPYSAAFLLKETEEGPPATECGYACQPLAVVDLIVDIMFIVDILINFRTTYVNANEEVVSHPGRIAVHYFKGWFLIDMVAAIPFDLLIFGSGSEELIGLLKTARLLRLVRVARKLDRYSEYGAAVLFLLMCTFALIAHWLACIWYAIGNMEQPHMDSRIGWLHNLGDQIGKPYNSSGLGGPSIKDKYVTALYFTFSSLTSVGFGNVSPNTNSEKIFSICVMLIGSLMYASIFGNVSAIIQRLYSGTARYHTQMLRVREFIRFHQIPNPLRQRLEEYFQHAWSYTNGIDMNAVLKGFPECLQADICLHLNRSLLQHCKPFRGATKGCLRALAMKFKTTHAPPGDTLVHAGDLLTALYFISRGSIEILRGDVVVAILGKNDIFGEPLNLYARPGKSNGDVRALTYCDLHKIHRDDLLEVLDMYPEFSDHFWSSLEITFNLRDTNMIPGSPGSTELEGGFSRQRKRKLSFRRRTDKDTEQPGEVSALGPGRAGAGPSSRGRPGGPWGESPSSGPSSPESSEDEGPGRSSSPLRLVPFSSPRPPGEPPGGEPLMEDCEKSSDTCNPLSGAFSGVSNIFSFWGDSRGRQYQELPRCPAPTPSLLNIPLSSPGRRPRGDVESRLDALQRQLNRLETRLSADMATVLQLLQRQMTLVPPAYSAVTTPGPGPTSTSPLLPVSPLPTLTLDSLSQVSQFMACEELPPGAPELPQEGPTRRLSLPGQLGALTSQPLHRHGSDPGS

SMILES | hERG current change (%, negative = inhibition) at 10uM [%]
COCCn1c(-c2ccc(OC(F)(F)C(F)C(F)(F)F)cc2)nc2c1c(=O)[nH]c(=O)n2CC(C)C (centres unmarked) | -19.5
CN(Cc1ccccc1F)C(=O)CN1CCN(S(=O)(=O)c2ccc3c(c2)OCCCO3)CC1 | -18.4
COc1cc(NC(=O)COC(=O)/C=C/c2ccc(OC)c(OC)c2)cc(OC)c1 | 1.13
CCCCCCOc1ccc(/C=N/NC(=O)C2CC2)cc1 | 11.6
O=C(/C=C\c1ccc2c(c1)OCO2)Nc1nnc(SCC(=O)OCc2ccccc2)s1 | 16.2
O=C(CCC(=O)NNC(=O)COc1ccc(Br)cc1)NCc1ccccc1 | 19.6
CCCCNC(=O)CSc1nc(COc2ccccc2)nc2ccccc12 | 5.31
CC1=Nc2cc(C(=O)NCC3CCCO3)ccc2Sc2ccc(Br)cc21 (centres unmarked) | -18.5
CCCCc1ccc(NC(=O)N[C@H](C(=O)O)C(C)CC)cc1 (some centres unmarked) | -10.2
COC(Cc1nnc(SC)n1-c1ccc(Cl)cc1)OC | -4.54
COC(=O)Nc1ccc(OC)c(OC)c1 | 4.01
O=S(=O)(c1cccs1)N1CCc2ccccc2C1 | -5.63
CCc1ccc(OCC(=O)Nc2cccc3nsnc23)cc1 | 15
COC(=O)c1ccccc1S(=O)(=O)N1Cc2cc([N+](=O)[O-])ccc2Oc2ccccc21 | 11.7
O=c1[nH]c2cc(Cl)ccc2n1-c1ccccc1 | -3.91
O=S(=O)(c1cccs1)N1CCC2(CC1)OCCO2 | 10.3
CC(C)(C)c1nc2c(C#N)c(-c3ccc(Cl)cc3)ccn2n1 | -11.5
CC(CCc1ccc(O)cc1)NC1c2ccccc2-c2ccccc21 (centres unmarked) | -24.4
Nc1c(-c2cccs2)cnn1-c1nc(-c2ccc(Cl)cc2Cl)cs1 | -15.6
COc1cc(NS(=O)(=O)c2ccc3[nH]c(=O)[nH]c3c2)cc(OC)c1 | 22.8
O=C1[C@H]2[C@@H](c3ccc(F)cc3)N3C(=O)N(c4ccc(Br)cc4)C(=O)[C@@]3(Cc3ccc(Cl)cc3)[C@H]2C(=O)N1C1CCCCC1 | 14
CC(C)(C)NC(=O)C(c1ccc(Cl)cc1)N(CCO)C(=O)c1snc(C(N)=O)c1N (centres unmarked) | 7.97
CCN(C(=O)CSc1cc(C)c2ccccc2n1)c1c(N)n(Cc2ccccc2)c(=O)[nH]c1=O | 27.4
